Each structure is given as a SMILES string. Values joined by “and” are separate entries in the source; they are usually repeats but may differ in a detail not shown here. Equal entries are not always repeated.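 Results reflect a 48-hour exposure of cells in 96-well plates to compound at five concentrations. At the GI50, growth is halved. TGI: total growth inhibition.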

From PubChem BioAssay (NCI) come the findings set out here.

This assay relates to NCI-H322M lung. Nature of the assay: DTP human tumour cell line panel, 48 h.
As for `COc1ccc(C(=O)NC2=C(Cl)C(=O)c3ccccc3C2=O)cc1`, the TGI stood at 20.7 µM.
In turn, `CCCN(CCC)C(=S)N/N=C(/C)c1ccccc1O` returned a TGI of more than 87.6 µM.
On to `CC(C)(C)C1CCC2c3c([nH]c4ncccc34)C3C(=O)N(c4ccccc4)C(=O)C3C2C1` (stereo not given), for which the TGI was more than 100 µM.
`COc1ccc2c3c([nH]c(=O)c2c1C(=O)O)-c1ccccc1CC3` had a TGI of more than 100 µM.
Take `O=C1Nc2cc(-c3cccc(O)c3)ccc2/C1=C/c1ccc[nH]1`: the GI50 was 1.29 µM and the TGI was determined as 16.6 µM.
On the same counts, the results for `CCOC(=O)C(Cc1c[nH]c2cc(N(CCO)CCO)ccc12)(NC(C)=O)C(=O)OCC` are more than 1000 µM and more than 1000 µM.
`O=C1C[C@H](COCc2ccccc2)NC(=O)C[C@H](COCc2ccccc2)NC(=O)C[C@H](COCc2ccccc2)N1` had a TGI of more than 100 µM.
As for `COc1cccc(-c2nn(-c3ccccc3)cc2-c2ccnc(NCCCNC(=O)c3cccc(C(F)(F)F)c3)c2)c1`, the GI50 is 12.4 µM and the TGI was determined as 55.2 µM.
For `Cc1cc(C(=O)/C=C/c2ccc[nH]2)ccc1-n1ccc(C(F)(F)F)n1`, in that order: 44.5 µM and more than 100 µM.
Turning to `CC[C@H](C)C1=C(OC(C)=O)[N@+]2([O-])Oc3ccc(-c4c(O)c(O)c(-c5ccc(OC(C)=O)cc5)c(OC(C)=O)c4OC(C)=O)cc3O[C@]2([C@@H](C)CC)C(=O)N1O`, the concentration for total growth inhibition (TGI) is more than 50 µM.
Same read-out and setting: as for `O/N=C(/C(Cl)=C(Cl)Cl)C(Cl)Cl`, the figure is 96.1 µM; as for `CCC1C(C#N)=C(O)NC(O)=C1C#N`, more than 100 µM; as for `O=C1CC(c2c(-c3ccccc3)[nH]c3ccccc23)C(=O)N1c1ccccc1` (stereo not given), more than 100 µM.
For the molecule `O=C(/C=C/c1ccc(OCc2ccccc2)cc1)NCc1ccc(C(=O)NCCc2c[nH]c3ccccc23)cc1`, the total growth inhibition concentration (TGI) was more than 100 µM.
`CS(=O)(=O)Nc1cc(-c2ccc3ncnc(Nc4ccc(F)c(Cl)c4)c3c2)cnc1Cl`: the GI50 was 0.725 µM and 0.556 µM; the concentration for total growth inhibition (TGI) is 3.58 µM and 3.46 µM.
As for `S=c1o[nH]c(-c2ccccc2)c1C=Nc1ccccc1`, the TGI is more than 100 µM.
On the same count and under the same terms, for `O=C1CCC(=O)N1CNc1ccc2c(c1)S(=O)(=O)c1ccccc1O2` the value was more than 100 µM.
As to `COc1ccc(/C(C)=N/NC(=O)CSc2nc3ccccc3c(=O)n2CCc2ccc(S(N)(=O)=O)cc2)cc1`, the GI50 was 1.88 µM and the TGI worked out at 4.66 µM.
For `Cc1c[nH]c(C(=O)O)c1-c1cccn1-c1ccc(Cl)cc1[N+](=O)[O-]`, the TGI is more than 100 µM.
Still for that read-out and setting: as for `Cn1nc2ccc([N+](=O)[O-])cc2[n+]1[O-]`, the figure is more than 100 µM.
`CCCCCCCCCC[C@@H](O)[C@@H]1CC[C@@H]([C@@H]2CC[C@@H]([C@@H](O)CCCCCCCCCC[C@H](O)CC3=CC(C)OC3=O)O2)O1` (stereo not given in full): the GI50 is 8.68 µM and the TGI is more than 100 µM.
Consider `CN(CCNC(=O)c1c[nH]c2c1ccc1ccccc12)CCNC(=O)c1c[nH]c2c1ccc1ccccc12`, for which the TGI turned out to be 4.39 µM.
Same read-out and setting: as for `O=c1[nH]c2cc([N+](=O)[O-])ccc2nc1/C(=N/Nc1ccccc1)C(O)c1ccco1` (stereo not given), the figure is more than 100 µM.
In the case of `O=C1C2=Cc3ccccc3OC2(O)Oc2ccccc21` (stereo not given), the TGI is more than 100 µM.
Still for that read-out and setting: as for `Cc1cn(C2C=CC(COP(=O)(OCc3ccc([N+](=O)[O-])o3)N(C)CCCCCl)O2)c(=O)[nH]c1=O` (stereo not given), the figure is 27.1 µM.
Same read-out and setting: as for `COC(=O)CN(CC(O)C(NC(C)=O)C(O)C=O)C(=O)OCc1ccccc1` (stereo not given), the figure is more than 100 µM.
Still for that read-out and setting: for `CCc1cccc(C(C)C)c1NC(=O)CCl` the value was more than 100 µM; for `O=C1NC(N2CCCC(CO)C2)=N/C1=C\c1ccccc1` (stereo not given), more than 100 µM.
`COC(=O)CCC(=O)N1C/C(=C\c2ccccc2)C(=O)/C(=C/c2ccccc2)C1` yielded a TGI of 16 µM.
On the same count and under the same terms, as for `CCC/C=C\C=C\C1(NS(=O)(=O)c2ccc(C)cc2)CCC(C(C)(C)C)CC1` (stereo not given), the figure is 44.8 µM; as for `O=c1c2cc(Br)cc(Br)c2nc(CCCl)n1-c1ccc(O)c([N+](=O)[O-])c1`, 31.7 µM.
Consider `Cc1c(Cl)c(=O)oc2cc(OC/C=C3\CCC(=O)O3)ccc12`, for which the GI50 was 33.8 µM and the total growth inhibition concentration (TGI) came to 95.5 µM.
As for `c1ccc2c(c1)OCCc1cn[nH]c1-2`, the TGI was more than 100 µM.
On to `CC(=O)Oc1ccc2c(c1)[C@@]1(C)CCCC(C)(C)[C@@H]1CC2`, for which the GI50 was 13.5 µM and the TGI was determined as 28.5 µM.
`CC1C2CCC3C(O)C2(CC(O)C2(O)C1CC(O)C2(C)C)CC3(C)O` (stereo not given) had a TGI of more than 100 µM.
For the molecule `Cc1cccc(C)c1NC(=O)CCC/C(CC(=O)c1ccc(F)cc1)=N\NC(=O)C(=O)NN`, the TGI is more than 100 µM.
On the same count and under the same terms, as for `CC[C@@]1(OC(=O)C(N)CCCCN)C(=O)OCc2c1cc1n(c2=O)Cc2cc3ccccc3nc2-1` (stereo not given in full), the figure is 1.99 µM; as for `CC(C)(C)OP(=O)(OC(C)(C)C)C(O)c1ccc(/C=C(\C#N)C(N)=O)cc1` (stereo not given), more than 100 µM.
`NC(=S)N=Nc1c(O)[nH]c2c(Cl)cc(Cl)cc12` registered a TGI of more than 100 µM.
For `Nc1ncnc2c1ncn2C1OC(COS(N)(=O)=O)C(O)C1O` (stereo not given), the GI50 was 0.00182 µM and the TGI was 0.00499 µM.
In turn, `C[C@@H](CC(=O)O)OC1OC(COC(=O)C(C)(C)C)C(OC(=O)C(C)(C)C)C(OC(=O)C(C)(C)C)C1OC(=O)C(C)(C)C` (stereo not given in full) came in with a TGI of more than 100 µM.
Consider `N#C/C(c1nc2ccccc2[nH]1)=c1\s/c(=C(/N)O)c(=N)n1-c1ccccc1`, for which the TGI is more than 100 µM.
Still for that read-out and setting: as for `C=C1C(=O)OC2C1C(OC(=O)/C(C)=C/C)CC(O)(CCl)C1C(O)C=C(C)C21O` (stereo not given), the figure is more than 80.3 µM.
The same measure, in the same setting: for `Cn1c(=O)c2sc3c4sc5c(=O)n(C)c6ccccc6c5c4sc3c2c2ccccc21` the value was more than 100 µM.
In the case of `Clc1ccc(C2CC(c3cccc(Nc4ccncc4)c3)=NN2c2ccc(Cl)cc2)cc1` (stereo not given), the GI50 was 1.61 µM and the TGI was 2.98 µM.
With `O=C(O)[C@@H]1OCCOCCO[C@@H](C(=O)O)[C@H](C(=O)O)OCCOCCO[C@H]1C(=O)O`, the TGI was more than 100 µM.
Same read-out and setting: as for `COc1ccc(C2C(C#N)=C(S)N(C3OC(COC(C)=O)C(OC(C)=O)C(OC(C)=O)C3OC(C)=O)C(C)=C2C(C)=O)cc1` (stereo not given), the figure is more than 100 µM; as for `c1ccc(CN2CCc3[nH]c4ccccc4c3C2)cc1`, 49.8 µM.
Turning to `CN(C)C(=O)OCc1nc2c(N3CCOCC3)nc(-c3ccccc3)nc2n1C`, the GI50 is 1.56 µM and the TGI amounted to 3 µM.
Regarding `CN1CCN(c2ccc(OC(F)(F)F)c(Nc3ncc4c(n3)-c3c(c(C(N)=O)nn3CCO)CC4)c2)CC1`, the concentration for 50% growth inhibition (GI50) was 0.158 µM and the TGI was more than 10 µM.
On the same counts, the results for `Cc1ccc(C(=O)NCCCOc2ccc(N3C(N)=NC(N)=NC3(C)C)cc2Cl)cc1S(=O)(=O)F` are more than 100 µM and more than 100 µM.
As for `O=C1CCCC/C1=C1/SC(=Nc2ccccc2)C(=Nc2ccccc2)N1c1ccccc1`, the concentration for total growth inhibition (TGI) was more than 100 µM.
`COc1cccc2c1C1(O)C2CCCCCCCCCC12OCCCO2` (stereo not given): the TGI is more than 100 µM.
For `COc1cccc(/C=C/c2nc3c(cnn3-c3ccccc3)c(=O)[nH]2)c1`, the GI50 is more than 100 µM and the TGI was more than 100 µM.
As for `O=[P+](O)c1ccccn1`, the TGI was more than 100 µM.
On the same count and under the same terms, as for `CSc1nc(Nc2ccccc2Cl)c2c(N)nn(C)c2n1`, the figure is more than 100 µM; as for `Cc1c2n(c3ccccc13)S(=O)(=O)c1ccccc1-2`, more than 100 µM.
With `Cc1ccc(C(=O)c2sc3nc4c(cc3c2N)CCCC4)c(C)c1`, the GI50 is 3.35 µM and the TGI was more than 100 µM.
In turn, `CCOC(=O)C1C=C2O[C@@H]3OC4(CCCCC4)O[C@@H]3C2C2C(=O)CCC(=O)[C@@]12C(=O)OC` (stereo not given in full) displayed a total growth inhibition concentration (TGI) of more than 100 µM.
Take `O=C(NCCc1ccccc1)Nc1ccc2cc3ccc(NC(=O)NCCc4ccccc4)cc3nc2c1`: the GI50 is 1.14 µM and the TGI is 2.99 µM.
`Cc1ccccc1NC(=O)/C=N/O` came in with a TGI of more than 100 µM.
Consider `O=S(=O)(NCCNc1nccc(-c2c(-c3ccc(F)c(O)c3)nc3sccn23)n1)c1ccc(Cl)cc1`, for which the GI50 was 3.12 µM and the concentration for total growth inhibition (TGI) was more than 50 µM.
The molecule `O=C(O)Cc1ccc(Nc2nc3ccccc3nc2C(=O)O)cc1` came in with a TGI of more than 100 µM.
For the molecule `Nc1ccccc1C#C/C=C\C#CC#C/C=C\C#Cc1ccccc1N`, the GI50 is 17.7 µM and the TGI was more than 100 µM.
Molecule `C=C1C(=O)O[C@H]2C1C[C@@H](O)/C(C)=C/CC[C@@]1(C)O[C@H]21` (stereo not given in full) showed a TGI of more than 100 µM.
On the same count and under the same terms, as for `C=CC(COC(=O)C(C)(C)OC(C)=O)c1ccc(OC(=O)C(C)C)c(OC)c1` (stereo not given), the figure is 35.2 µM.
Take `Cc1cc(-c2nnc(/C=C/c3ccc4c(c3)OCO4)o2)n[nH]1`: the GI50 is 15.8 µM and the total growth inhibition concentration (TGI) is more than 50 µM.
In turn, `CN(C)CCCNc1ccc2nnn3c4ccc(OC(=O)c5ccccc5)cc4c(=O)c1c23` showed a TGI of 17.7 µM.
Consider `COC(=O)CCC1=NCC(C)(C)O1`, for which the TGI is more than 10 µM.
As to `CCc1c2cc(OC)c(OC)cc2cc2c3cc(OC)c(OC)cc3cc[n+]12` (tested in a mixture with another compound), the TGI is more than 76.8 µM.
The same measure, in the same setting: as for `c1cc(-c2ccc(-c3nc4ccc(C5=NCCN5)cc4s3)s2)ccc1C1=NCCN1`, the figure is 1.59 µM.
In the case of `CNC(=O)c1cc(Oc2cccc3nc(NC(=O)Nc4cc(C(F)(F)F)cc(C(F)(F)F)c4)ccc23)ccn1`, the GI50 is 3.94 µM and the TGI came to 50.6 µM.
In turn, `O=[N+]([O-])C1=Cc2cc(Cl)ccc2OC1c1cccc2ccccc12` (stereo not given) registered a TGI of 3.37 µM.
Same read-out and setting: for `CC(=O)c1c(SCCN2CCOCC2)n(-c2ccccc2)c(=S)n(-c2ccccc2)c1=O` the value was more than 57.6 µM.
